Source: the supplement of paper PMC12632987
In all, about 1,800 sequences were measured (“median log2 fold change of GCK-ALFA target abundance (FLAG IP / Myc IP barcode read proportion)”: median about 0.14, lowest 2% from about -0.84 on). The list shows a part of the results.

T1: TRAF2, Q12933
T1 chain: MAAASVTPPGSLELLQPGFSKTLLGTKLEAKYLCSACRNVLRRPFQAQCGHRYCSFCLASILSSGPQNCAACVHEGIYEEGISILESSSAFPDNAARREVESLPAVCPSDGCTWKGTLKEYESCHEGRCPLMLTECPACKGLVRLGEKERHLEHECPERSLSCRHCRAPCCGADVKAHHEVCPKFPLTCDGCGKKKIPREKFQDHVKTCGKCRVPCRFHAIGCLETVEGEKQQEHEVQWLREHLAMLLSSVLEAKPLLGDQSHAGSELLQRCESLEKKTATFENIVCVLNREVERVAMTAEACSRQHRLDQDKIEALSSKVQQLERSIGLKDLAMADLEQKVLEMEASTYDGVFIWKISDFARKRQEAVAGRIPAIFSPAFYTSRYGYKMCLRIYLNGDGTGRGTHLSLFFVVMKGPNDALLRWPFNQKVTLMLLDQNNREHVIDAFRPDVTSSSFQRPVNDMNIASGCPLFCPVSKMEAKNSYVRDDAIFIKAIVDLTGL

B1: traf2_out_11_169_872 (protein)
chain: KEAEKNRKLNDFALELNDEAKEKLKEFALKLAKELGLDVEEVKKIFEENKNKSLSAVAAALIKYFKEKGKEDAAAKIEKKYEELKEEINKKTSEKIKELE
B2: traf2_out_18_54_1952 (protein)
chain: EELERLKKEAREVIEKWRDEVLALVADDPAAQAMVEEMVKRVLEALETEGLWAAVTVFRRLSTELVAAITDPAKADAVGDIAADARNRLAKLALEYEKAK
B3: traf2_out_16_104_1417 (protein)
chain: AAAADAAFAAIIAGLEAIAEEANRLANEAYKLMLEASPEKRKELSDLLVRASELRRRALEAAEAARAGRAAGADLAEAEATLAELEAELKELKKELEKLK
B4: traf2_out_6_3_2514 (protein)
chain: SDEEERERNERALEEASEMSLETLKRAADTALAELEKLVKDPNATETDVLAANSFLNTLLEILRRHAEKHPEEREEAEAYAAEKEKRAAELMAEWKAKRA
B5: traf2_out_18_157_1816 (protein)
chain: MSDEELLRAARLAQEVEDRAEELVAATAGKSLEEIRAATLAWVEEAHELLAELPAGTRRHILTSAARRLVERLAREQGLSPEEAAALLAEALARIEELLA
B6: traf2_out_16_177_1448 (protein)
chain: ELDKVMDRLVILSELKRAALLIVEGKEEEAEKHLKRARELAEEAGDEEGLKLLEEIEKLAKENTPEAKKRLKELARELQKRAGELADEAERLIKERAEKE
B7: traf2_out_11_155_738 (protein)
chain: EEKLKLNQEMNDKINDIFDEARKEADAILEETAKKHPEHKEELEKLKEETKGFSYRSYIRSAIEKLKELGLEEEAKKLEELLEETQKKANEVVKETEEKL
B8: traf2_out_11_155_672 (protein)
chain: SKKQELNNELVDEITEISDKLKEEVKKILEEAAKEHPEHKEELEKVIESSKTLSGRSFARRAAQLFKELGLEEYAKKVEKLLEEAQKKMNEVVKKYEKLL
B9: traf2_out_11_155_668 (protein)
chain: EEKQKLNNELVSKVTEVSDELKEEVRAILEEAAAAHPEHAAELAAVIESGKTLSGRSFAQLAAQKFEELGLEEEAKRVRELLEEAQKKMNEIVKKYEKKL
B10: traf2_out_6_156_2398 (protein)
chain: MVEEILKETKEELKKLIKELSKASEEKKIKYINEIAGTVYRGLQKLREAGASVEEIKEFGEKIIKFIEEELKKEGIDESTKNLILSSVNAVVDVAIEAAK
B11: traf2_out_11_169_851 (protein)
chain: EEEEKNRKIIDKALELEDKAKAELKAHALALAKAAGLDTAAVEAIFAANEGKSLSAIAAALIAWFRAQGKEDAAAAVEAKYEELKDKINKEMTAFLKELE
B12: traf2_out_13_95_1062 (protein)
chain: SRELAKKINELADEAEAKVLALLDAAKAALADDPEAVAALDEARAAAKTKGISAAIHVLREAKAANPAHAAEWDALIAQLEAIRTELGRKVAELIKEEKE
B13: traf2_out_18_117_1777 (protein)
chain: ARREALIARAEELAERLDEAASRLGKVFLENYEKLSPEEKSEIMDVLADLTAVRRRALELIQLIERGEVPVEEAEARLRELEVEAEAAIARAEKRIKEIK
B14: traf2_out_12_187_970 (protein)
chain: SVEEELIRAAEEAIRQALKALEEAAPEREEFKEFLKRLKEVEELLKKHPSVAADAAVAASLILRAVRLFEDGLPQEEIDAAAEAARKELEELLAKLKALQ
B15: traf2_out_13_95_1159 (protein)
chain: SAELAKKIMEIADEMLDKAKEVLEELLKKAKAAGKLVEEVEEALHLAEHQSINEAIHKLEELAKKHPEFKEELEEAIEKLKELRREAGRRVAKLIKEEQE
B16: traf2_out_17_162_1509 (protein)
chain: SATAALEAEARAELAALRAEKAALKAKMANLDSLSKEELSDLLVEASEARRRALELAERLREHAAELGEERAAALIDEAEAIAEELQKIANEAYKELLKK
B17: traf2_out_13_95_1133 (protein)
chain: SAETAKKIMEIADKMLDEVEKILEELLKIFEKKGIGVEEIKEALYLARHQSINEAIAKLEELSKKYPEFKEELDKAIEEIKALREKAGKEVAEILKKEKE
B18: traf2_out_20_3_2162 (protein)
chain: SELEEEAEKAREEAIKLLEEAAKLADKETAERLKELKKKVEESKNLPYDDRLVVLSEVRREVRELAEEARAAGKEELAKVLEEAADALNRAMNLTYKIIE
B19: traf2_out_15_48_1347 (protein)
chain: DIEKLQETARKIADLADATRDEVAARLAELRAEATPEEAALLAEIRAAAESGATLRTVRGLLLAARPQFSPELAARLAELAERIDETIREMSRLYNETEK
B20: traf2_out_6_156_2377 (protein)
chain: TKEEILKKAKEKIEKEIKKLAEASEEKKIKYISEIAGAVYKALQALREAGASVEEIKKAVEELKKVAEEEAKKAGLPEDTINLLLSSINAVGEVALREAE
B21: traf2_out_11_155_720 (protein)
chain: SEKLKLNQELVNEIMAIADEADAELEAIIAEVAEEDPEVAAELRALLEANKDAGITTKLLLAARKLREAGYEEQAKRVEELLEKTQKKMNELYKEYEKKL
B22: traf2_out_14_149_1262 (protein)
chain: MTEEEINKKAAELAKKTAEALKEAIALLDAGKVEEAKKLLEELAKWLEEEGKKIGITPSSLFIIEEAIKALDTDLAEAKALLKRALDNAEALAEVYESKI
B23: traf2_out_20_38_2027 (protein)
chain: SEEEKEEEKLKKLIEVANEAYDEAEALIKELKAEGKSIEEIAEIAKEKIKEILEKEGLEEELKELKEDVDRVLNSPDAERLIARILARAVAKAEQKRLEK
B24: traf2_out_20_3_2078 (protein)
chain: SELEAELERELDRALALLRQAAARADPETAARLDALIARLRASRELSIEDRLVAISAVRREVRALAEEARAAGRADLAALLDAAADALNRAAQLAYEILE
B25: traf2_out_11_104_641 (protein)
chain: LTKEQARELNDFAMAQEDEARAVAADLAARLRALGEDEAAARVEAALADSGAGISTFRNLLEDLRPTLSPEAAAAADEAIERLEALQAKVSAKYNELEAK
B26: traf2_out_6_169_2498 (protein)
chain: SEEEKLKEEAKRHVERAKELLELAKTIYEQAKKNKDKSKIPVYVEALETMLNAAKHHYDEAIAAYEKLGNKEEAAKLKEEKEKTIKEMEEKLKEIKEMLK
B27: traf2_out_17_162_1635 (protein)
chain: SEVEEALERIEKELEELRKKTKEFEELAKEIEKLTPEELTDYLVEASEARRRALELMEELEELEEYIDPERREKLLEELEEIAEKLQRIANLFYKELEKK
B28: traf2_out_20_3_2209 (protein)
chain: EELKKELEKELEEALKLLKEAQKLADPETAKVLKELIKRLKESRKLSPEDALVELSEIRREVLLLRDEAEARGDEELAKVLEEAAEKLQRAMNLLYKIIE
B29: traf2_out_15_48_1361 (protein)
chain: STEDLRKTAREINDLIDATLDEVAKELKELLPKAKEENKPIITEAIETAENHRSINDVIALLDEAIEKSDPELAKKLEELRDRLLATKKEASKLFNETLK

Molecular target: T1, TRAF2, Q12933
Test: median log2 fold change of GCK-ALFA target abundance (FLAG IP / Myc IP barcode read proportion) (log2 ratio); each designed protein is fused to an ALFA-tag nanobody in HEK293 cells to bring the named protein to FLAG-tagged glucokinase (GCK); Myc marks an untargeted standard; higher = target protein stabilised (more abundant)
Details: target protein: 3xFLAG-MCP-GCK-ALFA reporter; HEK293 landing pad (RPLP)
In short: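 HEK293 landing-pad cells received a recombined binder library fused to the ALFA nanobody and were induced with 2 μg mL^−1 doxycycline, then transfected with a plasmid encoding a FLAG-tagged target and a Myc-tagged standard. Lysates were collected after 48 h for anti-FLAG and anti-Myc immunoprecipitation, and the circular RNA barcodes were reverse transcribed, amplified and sequenced. Target abundance for each binder is the median log2 ratio of FLAG to Myc barcode read proportions. Barcodes had to reach a proportion of at least 10^−7 in both replicates, each binder needed at least 3 barcodes per replicate, a pseudocount of 10^−6 was applied, and the two replicates were pooled.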

Binder	median log2 fold change
B1	0.289
B2	0.266
B3	0.316
B4	0.207
B5	0.216
B6	-0.176
B7	0.463
B8	0.207
B9	0.313
B10	0.175
B11	0.265
B12	0.0801
B13	0.26
B14	0.26
B15	-0.768
B16	-0.000298
B17	-0.0113
B18	0.36
B19	0.135
B20	0.122
B21	0.356
B22	0.162
B23	0.114
B24	-0.0407
B25	0.42
B26	0.3
B27	0.351
B28	-0.0494
B29	0.281
